The values that follow come from paper PMC10868842, “Structural basis of the recognition of adeno-associated virus by the neurological system-related receptor carbonic anhydrase IV” (PLOS Pathogens, 2024).

These are yes or no findings as the source states them, for the method shown. Some results given as binding are weak or reduced against the parent protein; the word gives no strength.

Test [1] addresses AAV9P31 capsid (adeno-associated virus 9 variant with the 7-mer WPTSYDA inserted in VP3 VR-VIII) (adeno-associated virus 9) (UniProt Q6JC40). The test can be described thus: SPR; BIAcore 8K; AAV9P31 particles immobilised on a CM5 chip by amide coupling (sodium acetate pH 4.0); WT or mutated Car4 proteins flowed over at 30 ul/min, 25 °C, PBST; regeneration with 10 mM glycine pH 2.0; both purified. A general note: SPR reads the build-up and loss of mass on a sensor chip optically.

The target in test [2] is AAV9 capsid (wild-type adeno-associated virus 9) (adeno-associated virus 9) (UniProt Q6JC40). The test can be described thus: SPR; BIAcore 8K; virus particles (ligand) immobilised on a CM5 chip by amide coupling from sodium acetate pH 4.0; Car4 or hCar4 proteins flowed over as analytes at 30 ul/min, 25 C, PBST; regeneration with 10 mM glycine-HCl pH 2.0; both purified.
The target in test [3] is AAV9P31 capsid (adeno-associated virus 9 variant with the 7-mer WPTSYDA inserted in VP3 VR-VIII) (adeno-associated virus 9) (UniProt Q6JC40). The test can be described thus: cryo-EM structure; AAV9P31 on the grid, Car4 (W22-S277) added and incubated for 5 minutes; icosahedral reconstruction and block-based reconstruction of the 3-fold axis blocks; both purified.
Test [4] has as its target wild-type AAV9 capsid (adeno-associated virus 9) (UniProt Q6JC40). The test can be described thus: SPR; BIAcore 8K; wild-type Car4 tested on AAV9; who was immobilised is not told for AAV9; both purified.

“Car4 (22-277) I100A (from UniProt Q64444 22-277) (receptor)”: in test [1], the binding entry is reported as “binds”.

“Car4 (22-277) K83A (from UniProt Q64444 22-277) (receptor)”: the binding result in test [1] was “binds”.

In the case of “Car4 (22-277) L217A (from UniProt Q64444 22-277) (receptor)”, the binding result in test [1] is reported as “binds weakly”.

Regarding “Car4 (22-277) Q112A (from UniProt Q64444 22-277) (receptor)”, in test [1], the binding entry is “binds weakly”.

Regarding “Car4 (22-277) R107A (from UniProt Q64444 22-277) (receptor)”, the binding entry in test [1] is “binds”.

B1: carbonic anhydrase IV (Car4), Mus musculus, residues 22-277 (receptor, UniProt Q64444 22-277)
chain: WCYEIQTKDPRSSCLGPEKWPGACKENQQSPINIVTARTKVNPRLTPFILVGYDQKQQWPIKNNQHTVEMTLGGGACIIGGDLPARYEAVQLHLHWSNGNDNGSEHSIDGRHFAMEMHIVHKKLTSSKEDSKDKFAVLAFMIEVGDKVNKGFQPLVEALPSISKPHSTSTVRESSLQDMLPPSTKMYTYFRYNGSLTTPNCDETVIWTVYKQPIKIHKNQFLEFSKNLYYDEDQKLNMKDNVRPLQPLGKRQVFKS
As to B1, the binding result in test [2] is listed as “no binding (tested: 2500 nM)”.

B2: Mus musculus carbonic anhydrase IV (Car4), amino acids W22 to S277 (receptor)
chain: WCYEIQTKDPRSSCLGPEKWPGACKENQQSPINIVTARTKVNPRLTPFILVGYDQKQQWPIKNNQHTVEMTLGGGACIIGGDLPARYEAVQLHLHWSNGNDNGSEHSIDGRHFAMEMHIVHKKLTSSKEDSKDKFAVLAFMIEVGDKVNKGFQPLVEALPSISKPHSTSTVRESSLQDMLPPSTKMYTYFRYNGSLTTPNCDETVIWTVYKQPIKIHKNQFLEFSKNLYYDEDQKLNMKDNVRPLQPLGKRQVFKS
notes: carbonic anhydrase IV (Car4), Mus musculus, residues 22-277 (W22 to S277); the functional rows use this molecule for Car4; also called wt Car4; truncated Car4 (22-277); not shown: GST, N-terminal, cleaved
For the molecule B2, the binding entry is recorded as “binds” in test [3] and “no binding” in test [4].
